For one series, the target named is c-Kit (Homo sapiens, UniProt P10721). The experiment in a line: Tyrosine kinase inhibition at the molecular level by ELISA. The settings on record: for results (efficacy evaluation): 10 μM, one verdict for c-Kit and PDGFR-β. In kind it is biochemical. The protocol:
(§1) The activity of diphenylurea compounds for inhibiting c-Kit, PDGFR-β protein tyrosine kinase on molecular level was tested by Enzyme-Linked Immunosorbent Assay (ELISA).
(§2) Reaction substrate Poly(Glu,Tyr)4:1 was bought from Sigma. Monoclonal antibody against tyrosine phosphate PY99 was bought from Santa Cruz. Horseradish peroxidase labeled sheep-against-rat IgG was bought from Calbiochem; ATP, DTT, OPD were bought from Amresco; microplates were bought from Corning; Su11248 was bought from Merk.
(§3) See Roskoski, R., Jr. Sunitinib: a VEGF and PDGF receptor protein kinase and angiogenesis inhibitor. Biochem Biophys Res Commun, 356: 323-328, 2007. The details comprise:
(§4) Kinase reaction substrate Poly(Glu,Tyr)4:1 was diluted to 20 μg/ml by potassium-free PBS, and the microplates were coated. Diphenylurea samples to be tested were added in the wells of the coated microplates (the samples to be tested were made from the stock solution 10^−2 M in DMSO, and diluted to the desired concentration with reaction buffer before use. the resulted solution was added into the wells to get the final concentration of 10^−5 mol/L in 100 μL reaction system). At the same time, the positive control compound Su11248 was added into the positive control wells.
(§5) ATP solution diluted with reaction buffer (the final concentration of ATP is 5 μM) followed by addition of tyrosine kinase diluted with reaction buffer. The total volume of reaction system was 100 μL. At the same time, the negative control wells and the control wells without enzyme were set up.
(§6) The reaction system was placed in a wet box, and shaked for 1 h at 37° C. shielding from light. After the reaction was completed, the plates were washed with T-PBS for three times. Antibody PY99 was added (100 μL/well), and the plates were shaked for 30 min at 37° C. After the reaction was completed, the plates were washed with T-PBS for three times. Horseradish peroxidase labeled sheep-against-rat IgG was added (100 μL/well), and the plates were shaked for 30 min at 37° C. After the reaction was complete, the plates were washed with T-PBS for three times. OPD developing liquid was added (100 μL/well), and reacted for 1-10 min at room temperature shielding from light. 50 μL of 2 M H2SO4 was added to quench the reaction. A492 value was determined using wavelength-adjustable microplate reader VERSAmax.
(§7) The inhibition ratio of samples can be calculated by the following formula: […]
Background: In an ELISA, binding on a coated surface is turned into a signal by an enzyme label.

Series [1] concerns human hepatocellular carcinoma SMMC-7721. Put plainly: Inhibition of tumor growth in nude mice xenograft model. In kind it is in vivo, Balb/c nu/nu nude mice. The settings on record: 100 mg/kg. An excerpt:
70 Balb/c nu/nu nude mice, 6 weeks-old, female, were bought from Shanghai Experimental Animal Resource Center (Shanghai B&K Universal Group Limited).
SMMC-7721 cells were commercially available from Shanghai Institutes for Biological Science, CAS (Shanghai, China).
The establishment of tumor nude mice xenograft model: SMMC-7721 cells in logarithmic growth period were obtained. After cell number counting, the cells were suspended in 1×PBS, and the concentration of the cell suspension was adjusted to 1.5×10^7/ml. The tumor cells were inoculated under the skin of right armpit of nude mice with a 1 ml syringe, 3×10^6/0.2 ml/mice. 70 nude mice were inoculated in total.
When the tumor size reached 30-130 mm^3, 58 mice were divided randomly into different groups. […]
Animal body weight and tumor size were tested twice a week during the experiment. Clinical symptoms were recorded every day. At the end of the administration, the tumor size was recorded by taking pictures. […]
The formula for calculating the tumor volume (TV) is: TV=a×b^2/2, wherein a, b independently represent the length and the breadth of the tumor. The formula for calculating the relative tumor volume (RTV) is: RTV=Vt/V0, wherein V0 is the tumor volume at the beginning of the administration, and Vt is the tumor weight when measured. […]

A short description of another series: in vivo. The settings on record: male, Sprague-Dawley, rat, serum, po, 3 mg/kg.
The target in another series is PDGFR-β (Homo sapiens, UniProt P09619). Put plainly: Tyrosine kinase inhibition at the molecular level by ELISA. In kind it is biochemical. The settings on record: 10 μM compound, ATP 5 μM, mean of duplicate. The protocol:
as §1, §2, §3, §4, §5, §6, §7

As for `CNC(=O)c1cc(Oc2ccc(NC(=O)Nc3ccc(Cl)c(C(F)(F)F)c3)cc2)ccn1` [CM4306, 4-(4-(3-(4-chloro-3-(trifluoromethyl)phenyl]ureido)-phenoxy)-N-methylpicolinamide], on c-Kit, the “results (efficacy evaluation)” value is “effective (The compound has efficacy if the inhibition rate of the tested compound at the experimental concentration 10^−5 mol/L was greater than 50%)”.
As usually defined, the AUC is concentration integrated over time. Turning to `[2H]C([2H])([2H])NC(=O)c1cc(Oc2ccc(NC(=O)Nc3ccc(Cl)c(C(F)(F)F)c3)cc2)ccn1` [CM4307, N-(4-chloro-3-(trifluoromethyl)phenyl)-N′-(4-(2-(N-(methyl-d3)aminoformyl)-4-pyridyloxy)phenyl)urea], in series [1] (day 15), the “absolute value of tumor inhibition rate, increase compared with CM4306” value is given as “more than 10%”. The “relative value of tumor inhibition rate, increase compared with CM4306” value in series [1] (day 15 (32.2%/19.6%−1=64%)) is given as “about 60%”. In “in vivo”, this compound returned an AUC of 11300 ± 2470 ng·h/mL.
As to `CNC(=O)c1cc(Oc2ccc(NC(=O)Nc3ccc(Cl)c(C(F)(F)F)c3)c(F)c2)ccn1` [CM4308, 4-(4-(3-(4-chloro-3-(trifluoromethyl)phenyl]ureido)-3-fluorophenoxy)-N-methylpicolinamide], on c-Kit, the “results (efficacy evaluation)” value is recorded as “effective (The compound has efficacy if the inhibition rate of the tested compound at the experimental concentration 10^−5 mol/L was greater than 50%)”.
The same measure, in the same setting: the result for `[2H]C([2H])([2H])NC(=O)c1cc(Oc2ccc(NC(=O)Nc3ccc(Cl)c(C(F)(F)F)c3)c(F)c2)ccn1` [CM4309, 4-(4-(3-(4-chloro-3-(trifluoromethyl)phenyl]ureido)-3-fluorophenoxy)-N-(methyl-d3)picolinamide] reads “effective (The compound has efficacy if the inhibition rate of the tested compound at the experimental concentration 10^−5 mol/L was greater than 50%)”.
With `CCN(CC)CCNC(=O)c1c(C)[nH]c(/C=C2\C(=O)Nc3ccc(F)cc32)c1C` [Su11248], on c-Kit (10 μM compound, ATP 5 μM, mean of duplicate), the “% Inhibition ratio for tyrosine kinase at 10 μM, c-Kit mean value” is 90.2%. The “results (efficacy evaluation)” value on c-Kit is “effective (The compound has efficacy if the inhibition rate of the tested compound at the experimental concentration 10^−5 mol/L was greater than 50%)”. Besides, on PDGFR-β, the “% Inhibition ratio for tyrosine kinase at 10 μM, PDGFR-β mean value” is 93.9%.
